Measured values taken from the antibiotic and cytotoxicity screens of Wong et al. (2023).
This is one part of the list.

These compounds were tested on S. aureus RN4220 (assay: growth inhibition call (relative growth <= 0.2)). Conditions: 50 µM.

Growth inhibition call, inactive:
O=C1CCC(=O)N1Cc1cccc(CN2C(=O)[C@]3(CC(=O)N(Cc4ccccc4)C3=O)c3ccccc32)c1
O=c1oc2c(O)c(O)cc3c(=O)oc4c(O)c(O)cc1c4c23
CCCN(C)C[C@@H]1OCCCC[C@H](C)Oc2ccc(NC(=O)c3ccccc3)cc2C(=O)N([C@@H](C)CO)C[C@@H]1C
CN(C)C(=O)C[C@H]1CC[C@@H]2[C@H](COC[C@H](O)CN2S(=O)(=O)c2ccccc2)O1
C[C@H]1CCCCO[C@H](CN(C)C(=O)Nc2ccc3c(c2)OCO3)[C@@H](C)CN([C@@H](C)CO)C(=O)c2cc(NC(=O)NC3CCCCC3)ccc2O1
COc1ccc(NC(=O)N(C)C[C@H]2OCCCC[C@@H](C)Oc3ccc(NC(=O)CCC(F)(F)F)cc3C(=O)N([C@H](C)CO)C[C@@H]2C)cc1
COc1ccc(S(=O)(=O)N(C)C[C@@H]2OCc3cn(nn3)CCCC(=O)N([C@H](C)CO)C[C@H]2C)cc1
Cn1cc(CN2CCO[C@]3(COCCN(S(C)(=O)=O)C3)C2)cn1
O=c1c(O[C@@H]2O[C@H](CO)[C@@H](O)[C@H](O)[C@H]2O)c(-c2ccc(O)c(O)c2)oc2cc(O)cc(O)c12
C[C@H](CO)N1C[C@H](C)[C@H](CN(C)C(=O)NC2CCCCC2)Oc2c(NC(=O)c3ccc(-c4nccs4)cc3)cccc2C1=O
C[C@@H]1CN([C@H](C)CO)C(=O)c2cc(NC(=O)C3CCCCC3)ccc2O[C@@H](C)CCCCO[C@H]1CN(C)C(=O)Cc1ccccc1
